# Source: the supplement of paper PMC8728848
# The list shows a part of the results.
# How the values were obtained:
# Assay in all cases: glycan array binding signal (z-score within array); higher = stronger binding
# Settings in all cases: glycan notation: IUPAC condensed, linker removed
# [1] = biological target: Gal(b1-3)GlcNAc(b1-6)GalNAc
# How it was run: (§1)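 Glycan array binding is given as a within-array Z-score, which can be read as non-binding when negative. The arrays, 3228 of them, came from the Consortium for Functional Glycomics database and were retained only where the protein sequence was available. Z-scores were averaged across arrays of the same protein sequence at different concentrations or buffers and across linkers.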
# [2] = biological target: Gal(b1-3)GlcNAc(b1-6)[Gal(b1-3)]GalNAc
# How it was run: as §1
# [3] = biological target: Gal(b1-3)GlcNAc6S
# How it was run: as §1
# [4] = biological target: Gal(b1-3)[Fuc(a1-4)]GlcNAc
# How it was run: as §1
# [5] = biological target: Gal(b1-3)[Fuc(a1-4)]GlcNAc(b1-2)Man
# How it was run: as §1
# [6] = biological target: Gal(b1-3)[Fuc(a1-4)]GlcNAc(b1-2)Man(a1-3)[Gal(b1-3)[Fuc(a1-4)]GlcNAc(b1-2)Man(a1-6)]Man(b1-4)GlcNAc(b1-4)[Fuc(a1-6)]GlcNAc
# How it was run: as §1
# [7] = biological target: Gal(b1-3)[Fuc(a1-4)]GlcNAc(b1-3)Gal(b1-3)[Fuc(a1-4)]GlcNAc
# How it was run: as §1
# [8] = biological target: Gal(b1-3)[Fuc(a1-4)]GlcNAc(b1-3)Gal(b1-4)[Fuc(a1-3)]GlcNAc
# How it was run: as §1
# [9] = biological target: Gal(b1-3)[Fuc(a1-4)]GlcNAc(b1-6)GalNAc
# How it was run: as §1
# [10] = biological target: Gal(b1-3)[GlcNAc(b1-6)]GalNAc
# How it was run: as §1
# [11] = biological target: Gal(b1-3)[Neu5Ac(a2-6)]GalNAc
# How it was run: as §1
# [12] = biological target: Gal(b1-3)[Neu5Ac(a2-6)]GlcNAc(b1-4)Gal(b1-4)Glc
# How it was run: as §1
# [13] = biological target: Gal(b1-3)[Neu5Ac(b2-6)]GalNAc
# How it was run: as §1
# [14] = biological target: Gal(b1-4)Gal
# How it was run: as §1
# [15] = biological target: Gal(b1-4)GalNAc(a1-3)[Fuc(a1-2)]Gal(b1-4)GlcNAc
# How it was run: as §1
# [16] = biological target: Gal(b1-4)GalNAc(b1-3)[Fuc(a1-2)]Gal(b1-4)GlcNAc
# How it was run: as §1
# [17] = biological target: Gal(b1-4)Glc
# How it was run: as §1
# [18] = biological target: Gal(b1-4)Glc6S
# How it was run: as §1
# [19] = biological target: Gal(b1-4)GlcNAc
# How it was run: as §1
# [20] = biological target: Gal(b1-4)GlcNAc(a1-6)Gal(b1-4)GlcNAc
# How it was run: as §1
# [21] = biological target: Gal(b1-4)GlcNAc(b1-2)Man
# How it was run: as §1
# [22] = biological target: Gal(b1-4)GlcNAc(b1-2)Man(a1-3)Man(b1-4)GlcNAc(b1-4)GlcNAc
# How it was run: as §1
# [23] = biological target: Gal(b1-4)GlcNAc(b1-2)Man(a1-3)[Gal(b1-4)GlcNAc(b1-2)Man(a1-6)]Man(b1-4)GlcNAc(b1-4)GlcNAc
# How it was run: as §1
# [24] = biological target: Gal(b1-4)GlcNAc(b1-2)Man(a1-3)[Gal(b1-4)GlcNAc(b1-2)Man(a1-6)]Man(b1-4)GlcNAc(b1-4)[Fuc(a1-6)]GlcNAc
# How it was run: as §1
# [25] = biological target: Gal(b1-4)GlcNAc(b1-2)Man(a1-3)[Gal(b1-4)GlcNAc(b1-2)Man(a1-6)][Gal(b1-4)GlcNAc(b1-4)]Man(b1-4)GlcNAc(b1-4)[Fuc(a1-6)]GlcNAc
# How it was run: as §1
# [26] = biological target: Gal(b1-4)GlcNAc(b1-2)Man(a1-3)[Gal(b1-4)GlcNAc(b1-2)Man(a1-6)][GlcNAc(b1-4)]Man(b1-4)GlcNAc(b1-4)[Fuc(a1-6)]GlcNAc
# How it was run: as §1
# [27] = biological target: Gal(b1-4)GlcNAc(b1-2)Man(a1-3)[GlcNAc(b1-2)Man(a1-6)]Man(b1-4)GlcNAc(b1-4)GlcNAc
# How it was run: as §1
# [28] = biological target: Gal(b1-4)GlcNAc(b1-2)Man(a1-3)[GlcNAc(b1-4)][Gal(b1-4)GlcNAc(b1-2)Man(a1-6)]Man(b1-4)GlcNAc(b1-4)GlcNAc
# How it was run: as §1
# [29] = biological target: Gal(b1-4)GlcNAc(b1-2)Man(a1-3)[Man(a1-6)]Man(b1-4)GlcNAc(b1-4)GlcNAc
# How it was run: as §1
# [30] = biological target: Gal(b1-4)GlcNAc(b1-2)Man(a1-6)Man(b1-4)GlcNAc(b1-4)GlcNAc
# How it was run: as §1
# [31] = biological target: Gal(b1-4)GlcNAc(b1-2)Man(a1-6)[GlcNAc(b1-2)Man(a1-3)]Man(b1-4)GlcNAc(b1-4)GlcNAc
# How it was run: as §1
# [32] = biological target: Gal(b1-4)GlcNAc(b1-2)Man(a1-6)[Man(a1-3)]Man(b1-4)GlcNAc(b1-4)GlcNAc
# How it was run: as §1
# [33] = biological target: Gal(b1-4)GlcNAc(b1-2)[Gal(b1-4)GlcNAc(b1-4)]Man(a1-3)[Gal(b1-4)GlcNAc(b1-2)Man(a1-6)]Man(b1-4)GlcNAc(b1-4)GlcNAc
# How it was run: as §1
# [34] = biological target: Gal(b1-4)GlcNAc(b1-2)[Gal(b1-4)GlcNAc(b1-4)]Man(a1-3)[Gal(b1-4)GlcNAc(b1-2)[Gal(b1-4)GlcNAc(b1-6)]Man(a1-6)]Man(b1-4)GlcNAc(b1-4)GlcNAc
# How it was run: as §1
# [35] = biological target: Gal(b1-4)GlcNAc(b1-2)[Gal(b1-4)GlcNAc(b1-4)]Man(a1-3)[GlcNAc(b1-4)][Gal(b1-4)GlcNAc(b1-2)Man(a1-6)]Man(b1-4)GlcNAc(b1-4)GlcNAc
# How it was run: as §1
# [36] = biological target: Gal(b1-4)GlcNAc(b1-2)[Gal(b1-4)GlcNAc(b1-4)]Man(a1-3)[GlcNAc(b1-4)][Gal(b1-4)GlcNAc(b1-2)[Gal(b1-4)GlcNAc(b1-6)]Man(a1-6)]Man(b1-4)GlcNAc(b1-4)GlcNAc
# How it was run: as §1
# [37] = biological target: Gal(b1-4)GlcNAc(b1-2)[Gal(b1-4)GlcNAc(b1-6)]Man(a1-6)[Gal(b1-4)GlcNAc(b1-2)Man(a1-3)]Man(b1-4)GlcNAc(b1-4)GlcNAc
# How it was run: as §1
# [38] = biological target: Gal(b1-4)GlcNAc(b1-2)[Gal(b1-4)GlcNAc(b1-6)]Man(a1-6)[Gal(b1-4)GlcNAc(b1-2)Man(a1-3)]Man(b1-4)GlcNAc(b1-4)[Fuc(a1-6)]GlcNAc
# How it was run: as §1
# [39] = biological target: Gal(b1-4)GlcNAc(b1-2)[Gal(b1-4)GlcNAc(b1-6)]Man(a1-6)[GlcNAc(b1-4)][Gal(b1-4)GlcNAc(b1-2)Man(a1-3)]Man(b1-4)GlcNAc(b1-4)GlcNAc
# How it was run: as §1
# [40] = biological target: Gal(b1-4)GlcNAc(b1-2)[Gal(b1-4)GlcNAc(b1-6)]Man(a1-6)[GlcNAc(b1-4)][Gal(b1-4)GlcNAc(b1-2)[Gal(b1-4)GlcNAc(b1-4)]Man(a1-3)]Man(b1-4)GlcNAc(b1-4)[Fuc(a1-6)]GlcNAc
# How it was run: as §1
# [41] = biological target: Gal(b1-4)GlcNAc(b1-3)Gal(b1-3)GalNAc
# How it was run: as §1
# [42] = biological target: Gal(b1-4)GlcNAc(b1-3)Gal(b1-3)GlcNAc
# How it was run: as §1
# [43] = biological target: Gal(b1-4)GlcNAc(b1-3)Gal(b1-4)Glc
# How it was run: as §1
# [44] = biological target: Gal(b1-4)GlcNAc(b1-3)Gal(b1-4)GlcNAc
# How it was run: as §1
# [45] = biological target: Gal(b1-4)GlcNAc(b1-3)Gal(b1-4)GlcNAc(b1-2)Man(a1-3)[Gal(b1-4)GlcNAc(b1-3)Gal(b1-4)GlcNAc(b1-2)Man(a1-6)]Man(b1-4)GlcNAc(b1-4)GlcNAc
# How it was run: as §1
binder,measurement,setting,value
VLRB.aGPA.23-GCN4-biotin (Petromyzon marinus) (protein) ACPSQCSCSGTEVNCAGKSLASVPAGIPTTTRVLYLNSNQITKLEPGVFDRLANLRELHLWGNQLVSLPPGVFDNLANLEKLWLNSNQLTSLPAGLFDRLVNLEHLGLCCMKLTELPSGAFDKLTRLKQLGLDQNQLKSIPDGAFARLPSLTHVWLHTNPWDCQCTDILYLSGWVAQHSSIVGEGWPWRHSPDSAKCSGTNTPVRAVTEASTSPSKCP,glycan array binding signal (z-score),[1],-0.081
same,glycan array binding signal (z-score),[2],-0.076
same,glycan array binding signal (z-score),[3],-0.09
same,glycan array binding signal (z-score),[4],-0.081
same,glycan array binding signal (z-score),[5],-0.066
same,glycan array binding signal (z-score),[6],-0.082
same,glycan array binding signal (z-score),[7],-0.079
same,glycan array binding signal (z-score),[8],-0.081
same,glycan array binding signal (z-score),[9],-0.066
same,glycan array binding signal (z-score),[10],-0.079
same,glycan array binding signal (z-score),[11],-0.079
same,glycan array binding signal (z-score),[12],-0.08
same,glycan array binding signal (z-score),[13],-0.082
same,glycan array binding signal (z-score),[14],-0.084
same,glycan array binding signal (z-score),[15],-0.087
same,glycan array binding signal (z-score),[16],-0.086
same,glycan array binding signal (z-score),[17],-0.079
same,glycan array binding signal (z-score),[18],-0.078
same,glycan array binding signal (z-score),[19],-0.077
same,glycan array binding signal (z-score),[20],-0.077
same,glycan array binding signal (z-score),[21],-0.077
same,glycan array binding signal (z-score),[22],-0.08
same,glycan array binding signal (z-score),[23],-0.084
same,glycan array binding signal (z-score),[24],-0.075
same,glycan array binding signal (z-score),[25],-0.086
same,glycan array binding signal (z-score),[26],-0.081
same,glycan array binding signal (z-score),[27],-0.082
same,glycan array binding signal (z-score),[28],-0.083
same,glycan array binding signal (z-score),[29],-0.076
same,glycan array binding signal (z-score),[30],-0.082
same,glycan array binding signal (z-score),[31],-0.087
same,glycan array binding signal (z-score),[32],-0.084
same,glycan array binding signal (z-score),[33],-0.08
same,glycan array binding signal (z-score),[34],-0.084
same,glycan array binding signal (z-score),[35],-0.083
same,glycan array binding signal (z-score),[36],-0.083
same,glycan array binding signal (z-score),[37],-0.063
same,glycan array binding signal (z-score),[38],-0.068
same,glycan array binding signal (z-score),[39],-0.083
same,glycan array binding signal (z-score),[40],-0.076
same,glycan array binding signal (z-score),[41],-0.084
same,glycan array binding signal (z-score),[42],-0.071
same,glycan array binding signal (z-score),[43],-0.073
same,glycan array binding signal (z-score),[44],-0.079
same,glycan array binding signal (z-score),[45],-0.029
